The values below come from the supplement of paper PMC10338343.

± gives the standard deviation. In all, about 3,000 sequences were measured (“pre-steady-state target cleavage rate”: median about 0.0079, highest 2% from about 0.2 on). This is a selection; strong and weak results do not stand in their true shares.
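Also: 1 nM active piRISC with 0.1 nM target library at 33 °C single turnover.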

This assay relates to MILI (PIWIL2) piRISC loaded with piRNA #2 (26 nt). Kind of assay: pre-steady-state target cleavage rate (min^-1); MIWI and MILI are mouse PIWI proteins and EfPiwi is from a freshwater sponge; tags in brackets are library labels; higher = faster piRNA-guided slicing of the target. The conditions noted are these: guide: piRNA #2 5'p-UUAGGUAACCCAGUAGAUCCAGAGGA; auxiliary factor: 500 nM mouse GTSF1. Summed up: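 For Cleave-'n-Seq, a transcribed, DNA-blocked target RNA library […] met 1 nM active affinity-purified piRISC with one synthetic guide at 33 °C for 0–8 or 0–960 min in HEPES–potassium acetate buffer, with or without 500 nM GTSF1 partner protein. Uncleaved targets were sequenced and normalised to depth and weakly complementary targets, with three trials pooled and k3 capped at 0.0001 min^-1. A burst-and-steady-state fit supplied the pre-steady-state cleavage rate.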
Regarding CUUAAGGUGUGGAUCUACUGCGUUACCUAA, the “pre-steady-state target cleavage rate” value stood at 0.00593 ± 0.0047. Regarding CUUAAGCUCUGGAUCUAGCUGGGUUACCUAA, the “pre-steady-state target cleavage rate” value is under 0.0001.

CUUAACCUCUGGUUCUACAGGGUUACCUAA: the “pre-steady-state target cleavage rate” value is 0.0948 ± 0.019.

On to CUUAAGCUCUGGAACUACAGGGUUACCUAA, for which the “pre-steady-state target cleavage rate” value amounted to 0.0677 ± 0.012. Then CUUAUCCUCUGGAUGUACUGGGAUACCUAA, with 0.0275 ± 0.0095.

Regarding CUUAAGCUGUGGAUCUACUGGGUUAGCUAA, the “pre-steady-state target cleavage rate” value came out at 0.00876 ± 0.0053. For CUUAAGGAGUGGAACUACUGGGUUACCUAA the value was 0.0108 ± 0.0086. For CUUAAGGUCUGGAUGUAGUGGGUUACCUAA the value was 0.0314 ± 0.01; for CUUAUCCUCUGGAUCUAGUGGGAUACCUAA, 0.0125 ± 0.0033; for CUUAUCCUCUGGUUCUACUGGGUUAGCUAA, 0.235 ± 0.069. For the sequence CUUAACCUCUGGAUGUACUGGGUUACCUAA, the “pre-steady-state target cleavage rate” value amounted to 0.136 ± 0.026. CUUAAGGAGAGGAUCUACUGGGUUUCCUAA: the “pre-steady-state target cleavage rate” value was 0.00642 ± 0.0028. For CUUAAGGUCUGGAUCUACUGGGUUACCAUAA the value was 0.0725 ± 0.019; for CUUAAGCUCUGGAUCUACUGCGUUACCUAA, 0.0137 ± 0.0059; for CUUAUCCUCUGGAUCAACUGGGUUAGCUAA, 0.0291 ± 0.0083. Then CUUAACCUCAGGAUCUACUGGGUUUCCUAA, with 0.069 ± 0.022; and CUUAAGGAGUGGAGCUACUGGGUUACCUAA, with 0.0203 ± 0.0089; and CUUAUGGUCUGGAUCUACUGGGUUACCUAA, with 0.109 ± 0.016. For CUUAUCCUCUGGUUCUACUGGGUUACCAAA the value was 0.453 ± 0.15.

As to CUUAAGCUCUGAGAUCUACUGGGUUACCUAA, the “pre-steady-state target cleavage rate” value is 0.0935 ± 0.021. Then CUUAAGCUCUGGAUCUACUGUGUUACCUAA, with 0.0309 ± 0.0074; and CUUAACCUCUGGACUCUACUGGGUUACCUAA, with 0.0674 ± 0.018; and CUUAUCCACUGGUUCUACUGGGUUACCUAA, with 0.129 ± 0.024. Then CUUAUCCACUGGAUCUACUGGGUUACCUUA, with 0.0763 ± 0.011.

As to CUUAAGGACUGGAUCUACUGGGUUAGCCUAA, the “pre-steady-state target cleavage rate” value stood at 0.0133 ± 0.013. Then CUUAAGGAGUGGAUCUACACCGUUACCUAA, with 0.00369 ± 0.0031; and CUUAAGGUCUGGAUCUACUGGGUUAACUAA, with 0.0581 ± 0.018; and CUUAAGCGUCUGGAUCUACUGGGUUACCUAA, with 0.0999 ± 0.021. For CUUAAGGAGACCAUCUACUGGGUUACUAA the value was under 0.0001. For CUUAACCUCUGGAUCUACUGGGUUAACCUAA the value was 0.115 ± 0.024; for CUUAAGCUCUGGAUCUACCGGGUUACCUAA, 0.0213 ± 0.0061.

Consider CUUAAGCUCUGGAUCUAGUGGGUUAGCUAA, for which the “pre-steady-state target cleavage rate” value turned out to be 0.0124 ± 0.004. For CUUAACCUCUGGAUCUACUGGGUUACCUA the value was 0.14 ± 0.029. For CUUAACCUCUGGAAGUACUGGGUUACCUAA the value was 0.114 ± 0.019. For CUUAUCCUCUGGAUCUACUGAGGUUACCUAA the value was 0.0102 ± 0.006; for CUUAUGCUCUGGAUCUUCUGGGUUACCUAA, 0.0427 ± 0.0095; for CUUAAGGUCUGGAUGUACAGGGUUACCUAA, 0.043 ± 0.012. In the case of CUUAUCCUCUGGAUCUACUGGGUUACUCUAA, the “pre-steady-state target cleavage rate” value is 0.0694 ± 0.015. Consider CUUAAGCGCUGGAUCUACUGGGUUACCUAA, for which the “pre-steady-state target cleavage rate” value amounted to 0.0946 ± 0.019. Then CUUAACCUCUGGAUCUACUGGGUUACUUAA, with 0.101 ± 0.022; and CUUAAGGAGACCUAGUACUGGGAUACCUUA, with under 0.0001. For CUUAAGGACUGCAUCUAGUGGGUUACCUAA the value was 0.0123 ± 0.0063; for CUUAUCCUCUGGAUACUACUGGGUUACCUAA, 0.0816 ± 0.019; for CUUAUCCUCUGGAUCUACUGGGUUAACUAA, 0.115 ± 0.029.

As to CUUAAGCUCAGGAUCUACUGGGAUACCUAA, the “pre-steady-state target cleavage rate” value is 0.0197 ± 0.0065. Then CUUAAGGUCUGGUUCUUCUGGGUUACCUAA, with 0.0474 ± 0.013; and CUUAAGCUCUGGAACUACUGGGUUACCUUA, with 0.0686 ± 0.021; and CUUAACCUCUGGAUCUACUGGGUCUACCUAA, with 0.104 ± 0.024. Then CUUAAGGAGUGGUUCUACUGGGUUACCUUA, with 0.0136 ± 0.0069; and CUUAACCCUCUGGAUCUACUGGGUUACCUAA, with 0.0821 ± 0.022. For CUUAAGCUCUGGAUCUUCUGGGUUACCUUA the value was 0.0449 ± 0.013. Take CUUAAGCUCUGCAUCUACUGGGUUACGUAA: the “pre-steady-state target cleavage rate” value was 0.0499 ± 0.016.

For the sequence CUUAUCCUCUGGAUCUACUGGGUCUACCUAA, the “pre-steady-state target cleavage rate” value is 0.0768 ± 0.013. Then CUUAAGCUCUGGAUCUACUGGGUUACCUCAA, with 0.0468 ± 0.011. Consider CUUAAGGUCACGAUCUACUGGGUUACCUAA, for which the “pre-steady-state target cleavage rate” value amounted to 0.00915 ± 0.0045. For CUUAAGCUCUGCUACUACUGGGUUACCUAA the value was 0.0262 ± 0.0086; for CUUAAGGUCUGGAAGUACUGGGUUACCUAA, 0.0627 ± 0.018; for CUUAAGGACUGGGAUCUACUGGGUUACCUAA, 0.0184 ± 0.013. Consider CUUAAGGACUGGAUCUACUGGGUUACCUAAA, for which the “pre-steady-state target cleavage rate” value was 0.0459 ± 0.021.

As for CUUAAGCUCUGGAACUACUGGGUAACCUAA, the “pre-steady-state target cleavage rate” value was determined as 0.0205 ± 0.0095. Regarding CUUAUGCUCUGGAUCAACUGGGUUACCUAA, the “pre-steady-state target cleavage rate” value was 0.0439 ± 0.0094.

For CUUAAGCUGUGGAUCUAGUGGGUUACCUAA, the “pre-steady-state target cleavage rate” value was found to be 0.0526 ± 0.014. Then CUUAACCUCAGGUUCUACUGGGUUACCUAA, with 0.073 ± 0.019; and CUUAACCUCUGGAAUCUACUGGGUUACCUAA, with 0.101 ± 0.024; and CUUAAGGUCUGCAUCUACUGGGUUACGUAA, with 0.0206 ± 0.01.

As for CUUAAGCUCAGGAUCUACUGGGUUACCAAA, the “pre-steady-state target cleavage rate” value came out at 0.0403 ± 0.012.

As for CUUAACCUCUCGAUCUACUGGGUUACCAAA, the “pre-steady-state target cleavage rate” value was found to be 0.0719 ± 0.016. As to CUUAAGGAGUGGAUCCACUGGGUUACCUAA, the “pre-steady-state target cleavage rate” value was 0.0426 ± 0.013. Take CUUAAGCUCUGGAUCUACUGGGAAUCCUAA: the “pre-steady-state target cleavage rate” value came out at 0.00557 ± 0.004. For CUUAAGCUCUGGAUCUACUGGGUUACUAA the value was 0.139 ± 0.027; for CUUAACCUCUGGAACUACUCGGUUACCUAA, 0.00428 ± 0.0028. Then CUUAUCCUCUGGAUCUACUGGGUUAGCCUAA, with 0.151 ± 0.029.
